This is one part of the list.

This test addresses T1, OsWOX13 (Oryza sativa, UniProt Q5QMM3 1-267).
T1 sequence: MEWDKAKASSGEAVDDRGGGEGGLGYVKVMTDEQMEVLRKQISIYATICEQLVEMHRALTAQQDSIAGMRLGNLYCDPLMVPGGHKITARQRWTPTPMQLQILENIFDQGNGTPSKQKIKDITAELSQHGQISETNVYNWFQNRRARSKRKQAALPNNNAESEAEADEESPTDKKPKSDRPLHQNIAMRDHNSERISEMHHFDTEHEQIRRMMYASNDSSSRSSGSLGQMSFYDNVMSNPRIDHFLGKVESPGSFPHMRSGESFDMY
The experiment in a line: protein-binding microarray (RPBM); PBS, 2% BSA, 51.3 ng/ul salmon testes DNA, 50 uM zinc acetate, 200 nM TF, 25 C, 1 h; high values mean tight binding. The settings on record: protein: recombinant; tags: N-terminal polyhistidine and DsRed monomer fusion (pET32a); label: CyDye5-dUTP incorporated in the synthesized complementary strand; 3' TTTTT single-stranded linker to array surface; dsDNA, one strand shown. The gist of the method: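 Using Ni–NTA, transcription factors fused N-terminally to polyhistidine and DsRed were purified after expression in E. coli BL21-CodonPlus. These were incubated at 200 nM with a blocked, double-stranded custom Agilent array for 1 h at 25 °C in a buffer containing 50 µM zinc acetate, and the array was washed. The binding signal is per-feature fluorescence intensity (arbitrary units) on an Axon 4000B scanner.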
As for “ATTAAATATAAATTAAAAGAAAATCTAATTGCACAGTTAGCGGAGTCACCTAGTGCAG”, the binding signal is 18200 fluorescence intensity (a.u.).

As for “ATGAATCTAGTCAGATTGGCCAATTTGATTTGTTTTACTCCGGAGTCACCTAGTGCAG”, the binding signal was 9360 fluorescence intensity (a.u.).

Regarding “TCCAAATTAGCGTCCAAACATCCGATGTGACATGGGCTAACGGAGTCACCTAGTGCAG”, the binding signal was 12900 fluorescence intensity (a.u.).

Take “AGTAATTTAGAAGTAGAACCCTATTCCATTCCATCGTGGGCGGAGTCACCTAGTGCAG”: the binding signal was 5750 fluorescence intensity (a.u.).

In the case of “TTATATACAGACTGATTAATTTCTTTCAGTTGTAACTTGGCGGAGTCACCTAGTGCAG”, the binding signal is 23400 fluorescence intensity (a.u.).

As to “TTGATTGTGTGCAACTGACTTTGTCCCCGTTCTATAATATCGGAGTCACCTAGTGCAG”, the binding signal is 8250 fluorescence intensity (a.u.).

As to “GATAATCACTGTATCTACTTGATTGTACAAATAAATTAAACGGAGTCACCTAGTGCAG”, the binding signal was 4760 fluorescence intensity (a.u.).

As for “GATATTAGATTAGTAAATAGTCAATACTAAACCAGAATGACGGAGTCACCTAGTGCAG”, the binding signal is 6070 fluorescence intensity (a.u.).

With “TATGAGTTAGATTGGACCTATATTTAAGGAAGTTAAAGTGCGGAGTCACCTAGTGCAG”, the binding signal is 7450 fluorescence intensity (a.u.).

Turning to “TATTAATTTTGTTATTGCAATACATTATTTTAGAAAGGAACGGAGTCACCTAGTGCAG”, the binding signal is 14000 fluorescence intensity (a.u.).

Regarding “AGTTTTCAATCTTATCTTGAAAATTTTCAAATCTAAGTTGCGGAGTCACCTAGTGCAG”, the binding signal was 6620 fluorescence intensity (a.u.).

Consider “ATAAGTCATAACTGAGTGATTTGCCGATCCATGATTTATTCGGAGTCACCTAGTGCAG”, for which the binding signal is 10600 fluorescence intensity (a.u.).

For “AATTTGACAGGTAACTGAGTTTTGAGCAATACCTTAGAAGCGGAGTCACCTAGTGCAG”, the binding signal was 29600 fluorescence intensity (a.u.).

Regarding “TGTCACATGATTAATGATTTAATTTTGTCAAAAGAAATACCGGAGTCACCTAGTGCAG”, the binding signal is 17100 fluorescence intensity (a.u.).

On to “GTTCGCGGTAATTGAGAGAGTAAAGGCCATTTGACGCAGCCGGAGTCACCTAGTGCAG”, for which the binding signal is 29900 fluorescence intensity (a.u.).

Regarding “AATAATTAGCTGTAATTCTGTGAGCAAAGGTCAGGATTATCGGAGTCACCTAGTGCAG”, the binding signal is 34600 fluorescence intensity (a.u.).

For the sequence “TCCTAATGACTCCACATTTTCCTGTCAATTTCCACACTAACGGAGTCACCTAGTGCAG”, the binding signal was 6540 fluorescence intensity (a.u.).

Consider “AAAATGACATATTGATACTTACGGCCTCATAATTTGCAAACGGAGTCACCTAGTGCAG”, for which the binding signal was 6230 fluorescence intensity (a.u.).

Take “ACACACCCTATGATTAATTGAGGAGTTGATAGTTGAAGTTCGGAGTCACCTAGTGCAG”: the binding signal is 17800 fluorescence intensity (a.u.).

Turning to “TTTAACTGCCTCCATAATTACTTGCAGAGAAATAAAACTTCGGAGTCACCTAGTGCAG”, the binding signal was 10500 fluorescence intensity (a.u.).

For the sequence “ATGATACTGATAATTGCCTATTACTCCTGGACCAGCATTGCGGAGTCACCTAGTGCAG”, the binding signal is 20100 fluorescence intensity (a.u.).

As for “CCTGTAACAAATTTTGCGGACTATATATATAGAGGGATGTCGGAGTCACCTAGTGCAG”, the binding signal is 4490 fluorescence intensity (a.u.).

As for “CCGACATAGATTGGCCGTTAAGGCTGGGCCCATCTAGAAACGGAGTCACCTAGTGCAG”, the binding signal was 15900 fluorescence intensity (a.u.).

In the case of “CTTTAATGAGAATTCGAAATTCGGATGAATTCCTTCATGCCGGAGTCACCTAGTGCAG”, the binding signal is 4450 fluorescence intensity (a.u.).

Turning to “TGGCTGACTGCTTGTCAACGTGGATCATCATCATACAGATCGGAGTCACCTAGTGCAG”, the binding signal is 6990 fluorescence intensity (a.u.).

For “CAAAATTTGAAGTTTGATTGAAATTGGTACGATGTGATGGCGGAGTCACCTAGTGCAG”, the binding signal is 62400 fluorescence intensity (a.u.).

For the sequence “GCTTTCTATCAATTTCGGCCAAATCCATCCATAGAATGGTCGGAGTCACCTAGTGCAG”, the binding signal was 6660 fluorescence intensity (a.u.).

On to “TATAGCTGATTTCTTTAATTAACAAACTCACAAATCGCGCCGGAGTCACCTAGTGCAG”, for which the binding signal is 36000 fluorescence intensity (a.u.).

In the case of “CCTCCTATTGATGCAAATTAGTTTGCAGTTTGTTTCGAACCGGAGTCACCTAGTGCAG”, the binding signal was 11600 fluorescence intensity (a.u.).

For “TCTACTATAGCAATTGATTAACACGCTAAATAAGCAAGTACGGAGTCACCTAGTGCAG”, the binding signal is 7340 fluorescence intensity (a.u.).

For the sequence “CTTGTCTTATTTGATTGTTGCATTTACATTTATGCAATTTCGGAGTCACCTAGTGCAG”, the binding signal was 9350 fluorescence intensity (a.u.).

“ATTCTCTCTTTTGCTCGCTTTGTTCCCTTTTCTTTCTTTTCGGAGTCACCTAGTGCAG”: the binding signal is 3770 fluorescence intensity (a.u.).

Take “GTTGTTCATTAACTAGATTATGTACTGAATCAGAGCTTAGCGGAGTCACCTAGTGCAG”: the binding signal is 5040 fluorescence intensity (a.u.).

Consider “GAAGTAATAAATTGCTAATATGATCAATTGTTCGACTGACCGGAGTCACCTAGTGCAG”, for which the binding signal is 18100 fluorescence intensity (a.u.).

For “GGTGCAGCTGATTAGATTGCTCTGCTAACATCTGAGTGAACGGAGTCACCTAGTGCAG”, the binding signal was 16900 fluorescence intensity (a.u.).

Turning to “ATTGTCATAATTTTATTATCAAATCCCACCGAGAATCTAGCGGAGTCACCTAGTGCAG”, the binding signal is 3790 fluorescence intensity (a.u.).

With “GTTGCTTAATTGGTTAGGTTTCTTATGGTGGAGCTGCCCACGGAGTCACCTAGTGCAG”, the binding signal is 31300 fluorescence intensity (a.u.).

For “CTTGCTGAATCGTCATTGATAATTAGGGGAGGAGGAACAACGGAGTCACCTAGTGCAG”, the binding signal was 5350 fluorescence intensity (a.u.).

Consider “CTTGATTGACGACCATCTCGTGGTTACCAATTCCATCACCCGGAGTCACCTAGTGCAG”, for which the binding signal is 60000 fluorescence intensity (a.u.).

With “CTATAAGAGATTGGCTGGATAAGGGACATGACAGGTCTCCCGGAGTCACCTAGTGCAG”, the binding signal is 10100 fluorescence intensity (a.u.).

In the case of “GGGGAGTCAATTATAGGGCATTAAATGACCTTTTCAATATCGGAGTCACCTAGTGCAG”, the binding signal was 15300 fluorescence intensity (a.u.).

With “GACAAATTTGTAATAGGAGATTTAATTAACCCTATCATTCCGGAGTCACCTAGTGCAG”, the binding signal is 33900 fluorescence intensity (a.u.).

Values taken from PMC7819943, “Rice protein-binding microarrays: a tool to detect cis-acting elements near promoter regions in rice”.
